{"source": "the supplement of paper PMC3334620", "note": "In all, about 33,000 sequences were measured (“E-score (-0.5 to 0.5)”: median about -0.054, highest 2% from about 0.39 on). This is one part of the list."}
{"target": "Ylr278c (UniProt Q05854)", "test": "PBM E-score (8-mer binding enrichment) (E-score (-0.5 to 0.5)); higher = stronger / more preferred TF binding; most listed sequences are background and not binding sites", "settings": "protein concentration: 200 nM; construct: GST-DNA-binding domain", "in_short": "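Detection of bound protein used fluorescent anti-GST, with scans normalised by masliner. The proteins were GST-tagged yeast transcription factors applied at about 100-200 nM to universal all-10-mer Agilent arrays made double-stranded by primer extension. Each ungapped eight-base word, pooled with its reverse complement, was scored with an E-score from the Universal PBM Analysis Suite.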"}
{"sequence": "AATAGTAG", "PBM E-score": 0.0073}
{"sequence": "AAAGTACG", "PBM E-score": -0.00022}
{"sequence": "GTCATACA", "PBM E-score": -0.108}
{"sequence": "GTTTGATA", "PBM E-score": 0.0927}
{"sequence": "CGCAATTA", "PBM E-score": 0.23}
{"sequence": "CTATCAGC", "PBM E-score": -0.084}
{"sequence": "CCATTGAA", "PBM E-score": -0.0444}
{"sequence": "GGATCGTA", "PBM E-score": -0.00905}
{"sequence": "GTCGGCTA", "PBM E-score": 0.088}
{"sequence": "CTAACCCC", "PBM E-score": 0.0848}
{"sequence": "GAGGGATA", "PBM E-score": -0.0711}
{"sequence": "ATTACGTG", "PBM E-score": -0.276}
{"sequence": "CGCTTACG", "PBM E-score": 0.0152}
{"sequence": "GGATCTAA", "PBM E-score": 0.0656}
{"sequence": "ACACTCCA", "PBM E-score": -0.111}
{"sequence": "CCAAGCAG", "PBM E-score": -0.0723}
{"sequence": "AGGCGTGG", "PBM E-score": -0.332}
{"sequence": "AACCAGTC", "PBM E-score": 0.0517}
{"sequence": "AATCTGTG", "PBM E-score": -0.166}
{"sequence": "AACTAGCG", "PBM E-score": 0.21}
{"sequence": "CTCATGAC", "PBM E-score": -0.0271}
{"sequence": "AGACGGCG", "PBM E-score": 0.0243}
{"sequence": "AGTCTTTA", "PBM E-score": -0.268}
{"sequence": "AGTATCAT", "PBM E-score": -0.00037}
{"sequence": "CTCGCGAC", "PBM E-score": 0.00925}
{"sequence": "CCAAGACA", "PBM E-score": -0.0449}
{"sequence": "TACGGGCA", "PBM E-score": -0.0848}
{"sequence": "ATAGATAG", "PBM E-score": -0.174}
{"sequence": "ACGCACAT", "PBM E-score": -0.12}
{"sequence": "ACACGTCA", "PBM E-score": -0.242}
{"sequence": "ATTCCTCA", "PBM E-score": -0.094}
{"sequence": "CCGAAACA", "PBM E-score": 0.282}
{"sequence": "CTTGACTA", "PBM E-score": -0.11}
{"sequence": "AGCTGGAA", "PBM E-score": -0.176}
{"sequence": "CAATCGAC", "PBM E-score": -0.257}
{"sequence": "ACGAGAGT", "PBM E-score": -0.131}
{"sequence": "GTTATTTA", "PBM E-score": -0.0229}
{"sequence": "AGCTTAGC", "PBM E-score": -0.152}
{"sequence": "AAAGCTGA", "PBM E-score": -0.206}
{"sequence": "AGGTTTCC", "PBM E-score": -0.0429}
{"sequence": "AGAGGAAC", "PBM E-score": -0.247}
{"sequence": "CTCCTCCA", "PBM E-score": -0.189}
{"sequence": "ATGAATAG", "PBM E-score": 0.0237}
{"sequence": "AGCGTTAG", "PBM E-score": -0.142}
{"sequence": "CCCTTAGG", "PBM E-score": -0.228}
{"sequence": "GTGAAAAA", "PBM E-score": 0.037}
{"sequence": "ATGAACAG", "PBM E-score": -0.146}
{"sequence": "CAGGCGTC", "PBM E-score": -0.1}
{"sequence": "ACTGACAG", "PBM E-score": -0.0502}
{"sequence": "AGGCTGAC", "PBM E-score": -0.265}
{"sequence": "CCATAATC", "PBM E-score": -0.0771}
{"sequence": "ATGCCGTG", "PBM E-score": 0.0916}
{"sequence": "AAGCTAGC", "PBM E-score": -0.221}
{"sequence": "CAGAGAAG", "PBM E-score": -0.15}
{"sequence": "GGAATAGA", "PBM E-score": 0.265}
{"sequence": "GAAGTTGA", "PBM E-score": -0.0386}
{"sequence": "AAGGGTAT", "PBM E-score": -0.0768}
{"sequence": "CGACCGAA", "PBM E-score": 0.148}
{"sequence": "AGATCTAA", "PBM E-score": -0.201}
{"sequence": "AGAGTGCG", "PBM E-score": -0.0736}
{"sequence": "GCCCGTAA", "PBM E-score": 0.0898}
{"sequence": "AATTCATG", "PBM E-score": 0.0206}
{"sequence": "CCACAAGG", "PBM E-score": -0.18}
{"sequence": "GCGGATCC", "PBM E-score": 0.271}
{"sequence": "CCACTAGC", "PBM E-score": -0.289}
{"sequence": "CACCGATC", "PBM E-score": 0.165}
{"sequence": "CAATGCCC", "PBM E-score": 0.147}
{"sequence": "AGGTGAAA", "PBM E-score": -0.0732}
{"sequence": "ACTCACAA", "PBM E-score": -0.163}
{"sequence": "GAACGCGC", "PBM E-score": 0.171}
{"sequence": "GCGACGAC", "PBM E-score": -0.126}
{"sequence": "AGAGTGGA", "PBM E-score": -0.0459}
{"sequence": "CCATAGAG", "PBM E-score": -0.198}
{"sequence": "GCCGTTCA", "PBM E-score": 0.107}
{"sequence": "GAGACCTA", "PBM E-score": -0.113}
{"sequence": "ACCACAAT", "PBM E-score": 0.0158}
{"sequence": "GCCGCCGC", "PBM E-score": 0.24}
{"sequence": "ATGCCGAC", "PBM E-score": 0.318}
{"sequence": "ATGGGGAC", "PBM E-score": 0.0826}
{"sequence": "ACCTCTCA", "PBM E-score": 0.0413}
{"sequence": "CTACTAAC", "PBM E-score": -0.0137}
{"sequence": "AACGCCAC", "PBM E-score": -0.146}
{"sequence": "CATGATTA", "PBM E-score": -0.0982}
{"sequence": "CAAAGACG", "PBM E-score": -0.0301}
{"sequence": "CTCATCGA", "PBM E-score": -0.21}
{"sequence": "AAAGCAGC", "PBM E-score": -0.0496}
{"sequence": "ACTACCCG", "PBM E-score": 0.119}
{"sequence": "AGACGGTG", "PBM E-score": -0.0786}
{"sequence": "CAGCAATG", "PBM E-score": -0.367}
{"sequence": "CAAGACAG", "PBM E-score": -0.0725}
{"sequence": "ACGAGTTC", "PBM E-score": -0.155}
{"sequence": "CTACCTTC", "PBM E-score": -0.117}
{"sequence": "ACACAGAT", "PBM E-score": -0.225}
{"sequence": "CCCAGCGA", "PBM E-score": -0.25}
{"sequence": "GGCCAACA", "PBM E-score": 0.0994}
{"sequence": "ATTCTCTG", "PBM E-score": -0.176}
{"sequence": "GAGCTATA", "PBM E-score": -0.178}
{"sequence": "AGTTATCA", "PBM E-score": -0.0406}
{"sequence": "CGCCTCCG", "PBM E-score": 0.398}
{"sequence": "AGAACTAT", "PBM E-score": -0.0308}
{"sequence": "ACCCGAGC", "PBM E-score": 0.211}
{"sequence": "TGTATCAA", "PBM E-score": -0.0655}
{"sequence": "AGTGCTGG", "PBM E-score": -0.185}
{"sequence": "GCCAGACA", "PBM E-score": 0.018}
{"sequence": "GGTGTCAC", "PBM E-score": 0.102}
{"sequence": "CTACTGAC", "PBM E-score": -0.0949}
{"sequence": "ATACCGGG", "PBM E-score": 0.334}
{"sequence": "ACAAACTG", "PBM E-score": -0.222}
{"sequence": "AGGCGAGG", "PBM E-score": -0.11}
{"sequence": "CGGGAAGA", "PBM E-score": 0.305}
{"sequence": "ATGTTATC", "PBM E-score": 0.0853}
{"sequence": "AGGCAAAT", "PBM E-score": -0.00215}
{"sequence": "AAAAACAG", "PBM E-score": -0.137}
{"sequence": "TCGACCCA", "PBM E-score": -0.167}
{"sequence": "ATGCATGC", "PBM E-score": -0.244}
{"sequence": "AACGGAAC", "PBM E-score": 0.322}
{"sequence": "AGCAATAA", "PBM E-score": -0.206}
{"sequence": "GACTTGCA", "PBM E-score": 0.0343}
{"sequence": "AGATCGCT", "PBM E-score": 0.0168}
{"sequence": "ATTCAAAT", "PBM E-score": -0.132}
{"sequence": "CTCGCTAA", "PBM E-score": 0.0133}
{"sequence": "AGTTGTAT", "PBM E-score": -0.0235}
{"sequence": "ATTACGGG", "PBM E-score": 0.0389}
{"sequence": "GAGCGTTA", "PBM E-score": -0.0526}
{"sequence": "ATTGGCAC", "PBM E-score": -0.247}
{"sequence": "GATACGGA", "PBM E-score": 0.348}
{"sequence": "CTACGGAC", "PBM E-score": 0.261}
{"sequence": "TAAGATCA", "PBM E-score": -0.324}
{"sequence": "GCAAGCCA", "PBM E-score": -0.216}
{"sequence": "GAATATGC", "PBM E-score": 0.0861}
{"sequence": "AGACACCA", "PBM E-score": -0.0872}
{"sequence": "ACCCCGCA", "PBM E-score": 0.285}
{"sequence": "CCTGTTGA", "PBM E-score": -0.121}
{"sequence": "AGAGTACA", "PBM E-score": -0.116}
{"sequence": "CGAACTGA", "PBM E-score": -0.0154}
{"sequence": "CGCCACTA", "PBM E-score": -0.093}
{"sequence": "CGGAGACG", "PBM E-score": 0.415}
{"sequence": "TCCACAGA", "PBM E-score": -0.111}
{"sequence": "GAACTCCA", "PBM E-score": 0.0324}
{"sequence": "CGCCTAAG", "PBM E-score": -0.0793}
{"sequence": "ATCGTGCG", "PBM E-score": 0.0767}
{"sequence": "CCAAGTCG", "PBM E-score": -0.0159}
{"sequence": "GCAGATAA", "PBM E-score": -0.0595}
{"sequence": "AATTATGA", "PBM E-score": 0.0982}
{"sequence": "AGCTTACG", "PBM E-score": -0.143}
{"sequence": "CCCACCTC", "PBM E-score": -0.103}
{"sequence": "GAGACAGC", "PBM E-score": 0.00346}
{"sequence": "AATGCTGA", "PBM E-score": -0.157}
{"sequence": "GCCGCTGA", "PBM E-score": 0.147}
{"sequence": "GACCCTCA", "PBM E-score": -0.137}
{"sequence": "GTATAAGA", "PBM E-score": -0.148}
{"sequence": "CGAAGTCC", "PBM E-score": 0.38}
{"sequence": "ATATACGC", "PBM E-score": -0.0877}
{"sequence": "TGCCCGCA", "PBM E-score": 0.265}
{"sequence": "TACTGCTA", "PBM E-score": -0.151}
{"sequence": "ATCTGCTC", "PBM E-score": -0.0964}
{"sequence": "AAACACAT", "PBM E-score": -0.194}
{"sequence": "AGGGCCCT", "PBM E-score": -0.213}
{"sequence": "AAATGACT", "PBM E-score": -0.219}
{"sequence": "GCAGGTTA", "PBM E-score": -0.0146}
{"sequence": "ATCAGACG", "PBM E-score": -0.167}
{"sequence": "ACTGCGGG", "PBM E-score": 0.14}
{"sequence": "TGGAGCAA", "PBM E-score": -0.111}
{"sequence": "AGAATAGC", "PBM E-score": -0.129}
{"sequence": "ATCCTCGG", "PBM E-score": 0.255}
{"sequence": "AGTCGTAC", "PBM E-score": -0.187}
{"sequence": "CCCAATAA", "PBM E-score": -0.0977}
{"sequence": "ACGAGGGG", "PBM E-score": -0.141}
{"sequence": "GCGTTGAC", "PBM E-score": -0.225}
{"sequence": "AAAGTCAT", "PBM E-score": -0.211}
{"sequence": "AGCCATTG", "PBM E-score": -0.275}
{"sequence": "AGATCCAC", "PBM E-score": -0.0299}
